According to the supplement of paper PMC12217912:
This is one part of the list. The full chains were built here from the parent and the listed change. Values near 0.05 are background.

B1: TEV protease; numbered along this chain (parent)
chain: MGESLFKGPRDYNPISSSICHLTNESDGHTTSLYGIGFGPFIITNKHLFRRNNGTLVVQSLHGVFKVKDTTTLQQHLVDGRDMIIIRMPKDFPPFPQKLKFREPQREERICLVTTNFQTKSMSSMVSDTSCTFPSGDGIFWKHWIQTKDGQCGSPLVSTRDGFIVGIHSASNFTNTNNYFTSVPKNFMELLTNQEAQQWVSGWRLNADSVLWGGHKVFMVKPEEPFQPVKEATQL

Variants of: B1
Assay: raw area under fraction-flipped curve 0-4 h after induction (AUC4h, not background-subtracted), DNA-recorder readout of cleavage of the substrate (dimensionless); higher = more cleavage of the substrate by the protease variant
Details: temperature: 34 °C; time window: 0-4 h after rhamnose induction
Experimental: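 In vivo DNA recorder in E. coli TOP10(DE3) ΔrhaA at 34 °C. Each TEVp single-site mutant (parent TEVp 0) is paired with a single-site variant of the 7-mer TEVs (canonical ENLYFQ|S). The substrate sits between flexible linkers in a Bxb1-sfGFP-TEVs-SsrA fusion, so cleavage stabilises Bxb1 and speeds flipping of a recombination array, read by NGS. The value is the raw area under the fraction-flipped curve over 0-4 h after rhamnose induction (AUC4h), with ≥20 reads per time point. It is not background-subtracted; inactive controls average about 0.047.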
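Note: Bxb1 expression induced with 0.2% (w/v) L-rhamnose at OD600 near 0.5, cultures sampled hourly, flipped fraction per protease–substrate barcode pair counted by paired-end Illumina sequencing.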

Variant | area with substrate ENLYFQA | area with substrate ENLYFQC | area with substrate ENLYFQE | area with substrate ENLYFQF | area with substrate ENLYFQG | area with substrate ENLYFQI | area with substrate ENLYFQK | area with substrate ENLYFQM | area with substrate ENLYFQP | area with substrate ENLYFQR | area with substrate ENLYFQS | area with substrate ENLYFQT | area with substrate ENLYFQW | area with substrate ENLYFQY | area with substrate ENLYFQD | area with substrate ENLYFQH | area with substrate ENLYFQL | area with substrate ENLYFQQ | area with substrate ENLYFQV | area with substrate ENLYFQN
MGESLFKGPRDYNPISSSICHLTNESDGHTTSLYGIGFGPFIITNKHLFRRNNGTLVVQSLHGVFKVKDTTTLQQHLVDGRDMIIIRMPKDFPYFPQKLKFREPQREERICLVTTNFQTKSMSSMVSDTSCTFPSGDGIFWKHWIQTKDGQCGSPLVSTRDGFIVGIHSASNFTNTNNYFTSVPKNFMELLTNQEAQQWVSGWRLNADSVLWGGHKVFMVKPEEPFQPVKEATQL [P94Y] | 0.0957 | 0.12 | 0.0592 | 0.0676 | 0.103 | 0.0584 | 0.0633 | 0.0796 | 0.0591 | 0.0504 | 0.0988 | 0.0662 | 0.0728 | 0.0715 |  |  |  |  |  | 
MGESLFKGPRDYNPISSSICHLTNESDGHTTSLYGIGFGPFIITNKHLFRRNNGTLVVQSLHGVFKVKDTTTLQQHLVDGRDMIIIRMPKDFPPRPQKLKFREPQREERICLVTTNFQTKSMSSMVSDTSCTFPSGDGIFWKHWIQTKDGQCGSPLVSTRDGFIVGIHSASNFTNTNNYFTSVPKNFMELLTNQEAQQWVSGWRLNADSVLWGGHKVFMVKPEEPFQPVKEATQL [F95R] | 0.0806 | 0.0753 |  |  | 0.0748 | 0.0489 |  | 0.0538 |  | 0.0654 | 0.071 | 0.0551 | 0.0425 | 0.0542 | 0.0584 | 0.0699 | 0.0566 | 0.0553 | 0.0277 | 
MGESLFKGPRDYNPISSSICHLTNESDGHTTSLYGIGFGPFIITNKHLFRRNNGTLVVQSLHGVFKVKDTTTLQQHLVDGRDMIIIRMPKDFPPSPQKLKFREPQREERICLVTTNFQTKSMSSMVSDTSCTFPSGDGIFWKHWIQTKDGQCGSPLVSTRDGFIVGIHSASNFTNTNNYFTSVPKNFMELLTNQEAQQWVSGWRLNADSVLWGGHKVFMVKPEEPFQPVKEATQL [F95S] | 0.0962 | 0.0755 |  |  | 0.0769 | 0.0531 |  | 0.0725 | 0.0477 | 0.0606 | 0.087 | 0.0671 | 0.074 | 0.0653 | 0.0632 | 0.0635 | 0.0539 | 0.0507 | 0.05 | 0.0649
MGESLFKGPRDYNPISSSICHLTNESDGHTTSLYGIGFGPFIITNKHLFRRNNGTLVVQSLHGVFKVKDTTTLQQHLVDGRDMIIIRMPKDFPPFPQQLKFREPQREERICLVTTNFQTKSMSSMVSDTSCTFPSGDGIFWKHWIQTKDGQCGSPLVSTRDGFIVGIHSASNFTNTNNYFTSVPKNFMELLTNQEAQQWVSGWRLNADSVLWGGHKVFMVKPEEPFQPVKEATQL [K98Q] | 0.101 |  |  |  | 0.147 | 0.0592 | 0.0851 |  | 0.0529 | 0.0214 | 0.114 |  | 0.0882 | 0.0768 | 0.0749 | 0.0932 |  | 0.0763 |  | 0.0879
